Measurements: PubChem BioAssay AID1745853 (National Center for Advancing Translational Sciences (NCATS), 2022)
Several values for one entry are separate records, joined by “and”; a condition that tells them apart may be missing. Equal entries are not always repeated. This is one part of the list. Further columns of the screen follow, without active or inactive calls.

How the values were obtained:
Assay in all cases: Primary Screen for Target Class Profiling of Small Molecule Inhibitors of Methyltransferases
[1] = molecular target: Glycine N-methyltransferase (Homo sapiens) (UniProt Q14749); settings: purified enzyme, MTase-Glo SAH luminescence; measured here: GNMT inhibition; at 40 µM; stronger effect = lower value
In short: (§1)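 Each enzyme was assayed with SAM and its substrate. SAH formation detected by MTase-Glo luminescence; single-point 40 uM screen[…].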

[2] = molecular target: Guanidinoacetate N-methyltransferase (Homo sapiens) (UniProt Q14353); settings: purified enzyme, MTase-Glo SAH luminescence; measured here: GAMT inhibition; at 40 µM; stronger effect = lower value
In short: as §1

[3] = molecular target: Histamine N-methyltransferase (Homo sapiens) (UniProt P50135); settings: purified enzyme, MTase-Glo SAH luminescence; measured here: HNMT inhibition; at 40 µM; stronger effect = lower value
In short: as §1

[4] = molecular target: Nicotinamide N-methyltransferase (Homo sapiens) (UniProt P40261); settings: purified enzyme, MTase-Glo SAH luminescence; measured here: NNMT inhibition; at 40 µM; stronger effect = lower value
In short: as §1

[5] = molecular target: Phenylethanolamine N-methyltransferase (Homo sapiens) (UniProt P11086); settings: purified enzyme, MTase-Glo SAH luminescence; measured here: PNMT inhibition; at 40 µM; stronger effect = lower value
In short: as §1
On the % scale 0 is the no-effect control and ±100 the full control effect.

Row | Structure (SMILES) | activity change, negative = inhibition [1] | activity change, negative = inhibition [2] | activity change, negative = inhibition [3] | activity change, negative = inhibition [4] | activity change, negative = inhibition [5]
1 | C[C@@H]1O[C@@H](O[C@H]2[C@H](O)[C@@H](O)[C@H](OC[C@H]3O[C@@H](OC(=O)[C@]45CCC(C)(C)C[C@H]4C4=CCC6[C@@]7(C)C[C@H](O)[C@H](O[C@@H]8O[C@H](CO)[C@@H](O)[C@H](O)[C@H]8O)[C@@](C)(C(=O)O)C7CC[C@@]6(C)[C@]4(C)CC5)[C@H](O[C@@H]4O[C@H](CO)[C@@H](O)[C@H](O)[C@H]4O)[C@@H](O)[C@@H]3O)O[C@@H]2CO)[C@H](O)[C@H](O)[C@H]1O (stereo not given in full) | 3.86% | 0.506% | 11.2% | -9.66% | 5.9%
2 | CCC[C@@H]1C[C@@H](C(=O)N[C@@H]([C@H]2O[C@H](SC)[C@H](OP(=O)(O)O)[C@@H](O)[C@H]2O)[C@H](C)Cl)N(C)C1 | 5.03% | 3.42% | 10.9% | -6.64% | 3.61%
3 | CC(O)c1cc(C(=O)N[C@@H](C)Cn2ccc(-c3ccc(C#N)c(Cl)c3)n2)n[nH]1 (stereo not given in full) | -8.52% | -6.08% | 7.82% | -25.3% | -5.25%
4 | O=C(Nc1ccc(F)cc1F)N1Cc2c(sc3c2CCCC3)-n2cccc2C1c1ccccc1 (stereo not given) | -1.01% | 4.98% | -1.81% | 0.16% | 2.47%
5 | COc1ccc(OC)c(CCNC(=O)CCc2nnc3n(Cc4ccc(Cl)cc4)c(=O)c4ccccc4n23)c1 | -4.11% | -7.84% | 4.68% | -19.8% | -4.79%
6 | COC(=O)C1=CO[C@@H](O)[C@@H]2C(CO)=CC[C@H]12 | -2.55% and 3.5% | -6.95% and 11.3% | 2.42% and 1.91% | -15.3% and -2.83% | -3.91% and 7.65%
7 | Cc1cccc(S(=O)(=O)N2[C@@H]3CC[C@H]2CC(NC(=O)c2ccncc2)C3)c1 (stereo not given in full) | -3.04% | -2.32% | -0.761% | -2.71% | -3.56%
8 | CC(=O)Nc1ccn(C2COC(COC(=O)c3ccccc3)O2)c(=O)n1 (stereo not given) | 6.25% | 4.65% | 9.4% | -5.81% | 5.42%
9 | Cc1nc(C(=O)NCC(=O)O)c(O)c2ccc(Oc3ccccc3)cc12 | -8.81% | -10.6% | -4.84% | -19.4% | -14.3%
10 | COc1cccc(CN2C(=O)c3cc4ccccc4n3CC2(C)C(=O)NC2CCCCC2)c1 (stereo not given) | 0.587% | 2.22% | 7.6% | 3.74% | 1.93%
11 | COc1cccc(CN2C(=O)c3ccc(-c4ccco4)n3CC2(C)C(=O)NCCC(C)C)c1 (stereo not given) | -14.4% | 3.1% | -2.13% | -17.9% | -3.2%
12 | O=C(NCCCNCCCNC(=O)c1cccnc1)c1cccnc1 | 1.28% | 0% | 5.45% | 22.2% | 0.384%
13 | C[C@@H]1O[C@@H](O[C@H]2[C@H](O[C@H]3CC[C@@]4(C)C(CC[C@]5(C)C4CC=C4[C@@H]6CC(C)(C)CC[C@]6(C(=O)O[C@@H]6OC[C@H](O)[C@H](O)[C@H]6O[C@@H]6O[C@@H](C)[C@H](O[C@@H]7O[C@H](CO)[C@@H](O)[C@H](O)[C@H]7O)[C@H](O)[C@H]6O)[C@H](O)C[C@]45C)C3(C)C)O[C@H](CO)[C@@H](O[C@@H]3OC[C@@H](O)[C@H](O)[C@H]3O)[C@@H]2O)[C@H](O)[C@H](O)[C@H]1O (stereo not given in full) | 3.68% | 2.39% | 8.92% | -7.08% | 2.64%
14 | CCOC(=O)C1=C(N)Oc2ccc(Cl)cc2C1C(C#N)C(=O)OCC (stereo not given) | -3.65% | -2.09% | 1.12% | -16.8% | -5.46%
15 | CCc1cccc(NS(=O)(=O)c2cc3[nH]c(=O)[nH]c3cc2C)c1 | 10.3% | 1.22% | 1.8% | -6.04% | -0.278%
16 | COCCCc1sc(-c2ccccc2)nc1C(=O)Nc1ccccc1-c1nc2cc(CN3CCCC3)cnc2s1 | 4.27% | -2.38% | 8.05% | -10.9% | 5.67%
17 | COc1ccc(F)cc1-c1cccc(C(=O)NCCNC(=O)c2ccccc2Cl)c1 | -3.85% | 0.212% | 3.06% | -4.55% | -2.84%
18 | Cc1cc2c(cc3n2CC(C)(C(=O)NC2CCCCCC2)N(Cc2ccc(F)cc2)C3=O)o1 (stereo not given) | 0.802% | 0% | 3.94% | -1.69% | 0.253%
19 | CCN1CCN(C(=O)c2ccc3nc(-c4cccnc4)oc3c2)CC1 | -6.55% | -8.7% | -3.77% | -11.5% | -6%
20 | COc1cccc(S(=O)(=O)N2CCCC(Cc3nncn3C)C2)c1 (stereo not given) | -14.6% | -7.71% | 0.606% | -14.3% | -12.3%
21 | O=C(CCc1nnc2n(Cc3ccccc3Cl)c(=O)c3ccccc3n12)NCc1cccnc1 | -10.6% | 0.755% | 1.01% | -4.57% | -2.57%
22 | COCCNC(=O)C1(C)Cn2c(nc3ccccc32)C(=O)N1CCc1ccc(Cl)cc1 (stereo not given) | 0.083% | 2.06% | 8.73% | 11.8% | 3.17%
23 | CN(c1cc(=O)c2ccnc(-c3ccc(F)c(Cl)c3)c2o1)C1CCOCC1 | -26.8% | -13.2% | -20.5% | -33% | 0.768%
24 | COc1ccccc1-c1cccc(C(=O)N2CCN([S+](=O)([O-])c3c(C)noc3C)CC2)c1 | -4.21% | -5.82% | -1.78% | -9.63% | -17%
25 | CC1(C(=O)NC2CCCCCCC2)Cc2ccccc2C(=O)N1C1CCCCCC1 (stereo not given) | 4.73% | 1.82% | 7.84% | 4.46% | 1.59%
26 | CCCN1C(=O)c2c(C(=O)NCc3ccc(C)cc3)ncn2CC1(C)C(=O)NCc1ccc(OC)cc1 (stereo not given) | 4.07% | 0.827% | 5.45% | 10.6% | 10.2%
27 | Cn1cnnc1CC1CCNC1 (stereo not given) | -1.59% | 2.12% | -4.02% | 0.081% | -0.138%
